In all, about 81,000 sequences were measured (“one-hybrid fitness for binding NBS DNA”: median about -0.1, highest 2% from about 0.36 on). The list shows a part of the results.
B1: Caulobacter ParB omega fusion; a variant is named by its letters at X, in order, B8GW30 (parent)
chain: MESVVVGEPGMSEGRRGLGRGLSALLGEVDAAPAQAPGEQLGGSREAPIEILQRNPDQPRRTFREEDLEDLSNSIREKGVLQPILVRPSPDTAGEYQIVAGERAWRAAQRAGLKTVPIMVRELDDLAVLEIGIIENVQRADLNVLEEALSYKVLMEKFERTQENIAQTIGKSXSHVANXMRLLXLPDEVQSYLVSGELTAXHARAIAAAADPVALAKQIIEGGLSVRETEALARKAPNLSAGKSKGGRPPRVKDTDTQALESDLSSVLGLDVSIDHRGSTGTLTITYATLEQLDDLCNRLTRGI

Variants of: B1
Assay: one-hybrid fitness for binding NBS DNA (the Noc-binding site; scaled: cognate 1, non-cognate 0); higher = stronger binding
Details: with NBS DNA site
Outline: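 Values were rescaled so that cognate is 1 and non-cognate is 0. Each is a fitness, the log change in a variant's read ratio to wild type from Illumina reads of plasmids before and after selection, with three replicate libraries pooled and variants under 10 reads dropped. Selection of the Caulobacter ParB libraries, four specificity codons randomised, used E. coli USO with a HIS3 reporter, site 19 bp from the promoter, on M9-minus-histidine with 0.1 mM IPTG and 5 mM 3-AT for 48 hours at 37°C.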

| Variant | one-hybrid fitness for binding NBS DNA |
| --- | --- |
| RAQW | ≤ 0.2 |
| DYEV | ≤ 0.2 |
| KCAS | ≤ 0.2 |
| MRNY | ≤ 0.2 |
| MTTN | ≤ 0.2 |
| ESTT | ≤ 0.2 |
| WICC | ≤ 0.2 |
| YYNH | ≤ 0.2 |
| GMAS | ≤ 0.2 |
| WPKV | ≤ 0.2 |
| GPAL | ≤ 0.2 |
| SSLP | ≤ 0.2 |
| RKKW | ≤ 0.2 |
| SWFT | ≤ 0.2 |
| YWEG | ≤ 0.2 |
| RKTL | ≤ 0.2 |
| YDMR | ≤ 0.2 |
| PAHE | ≤ 0.2 |
| LMTR | ≤ 0.2 |
| TENL | ≤ 0.2 |
| VHTL | ≤ 0.2 |
| TPRV | ≤ 0.2 |
| HPDT | ≤ 0.2 |
| SVVM | ≤ 0.2 |
| CVQG | ≤ 0.2 |

| Variant | one-hybrid fitness for binding NBS DNA |
| --- | --- |
| HYEG | ≤ 0.2 |
| SHKS | ≤ 0.2 |
| FAMS | ≤ 0.2 |
| RDIC | ≤ 0.2 |
| VVWS | ≤ 0.2 |
| QCYN | ≤ 0.2 |
| YFMY | ≤ 0.2 |
| RTDM | ≤ 0.2 |
| RDWT | ≤ 0.2 |
| RKMT | 0.587 |
| SNCL | ≤ 0.2 |
| SHHD | ≤ 0.2 |
| PPEC | ≤ 0.2 |
| QHDT | 0.344 |
| FSIC | ≤ 0.2 |
| HHYV | ≤ 0.2 |
| VDSE | ≤ 0.2 |
| QRLV | 0.331 |
| REAK | ≤ 0.2 |
| QAAK | ≤ 0.2 |
| YSVF | ≤ 0.2 |
| GYEN | ≤ 0.2 |
| GNFA | ≤ 0.2 |
| YGNG | ≤ 0.2 |
| APHK | ≤ 0.2 |

| Variant | one-hybrid fitness for binding NBS DNA |
| --- | --- |
| WVEP | ≤ 0.2 |
| VCIT | ≤ 0.2 |
| CYNG | ≤ 0.2 |
| LFPS | ≤ 0.2 |
| IQKL | ≤ 0.2 |
| YPPN | ≤ 0.2 |
| PTKD | ≤ 0.2 |
| KVES | ≤ 0.2 |
| NLWT | ≤ 0.2 |
| QIRV | 0.285 |
| WIAI | ≤ 0.2 |
| LVPV | ≤ 0.2 |
| HRQT | ≤ 0.2 |
| HAPN | ≤ 0.2 |
| QMDS | ≤ 0.2 |
| KRPS | 0.228 |
| RIFC | ≤ 0.2 |
| YGCL | ≤ 0.2 |
| PKDA | ≤ 0.2 |
| NCFS | ≤ 0.2 |
| YCRA | ≤ 0.2 |
| NAAM | ≤ 0.2 |
| CDRV | ≤ 0.2 |
| WTHY | ≤ 0.2 |
| QHQI | ≤ 0.2 |

| Variant | one-hybrid fitness for binding NBS DNA |
| --- | --- |
| QLDS | ≤ 0.2 |
| TYQT | ≤ 0.2 |
| HLNI | ≤ 0.2 |
| MLTS | ≤ 0.2 |
| TFTV | ≤ 0.2 |
| HMHA | ≤ 0.2 |
| HPES | ≤ 0.2 |
| FLRA | ≤ 0.2 |
| TGFR | ≤ 0.2 |
| PKLD | ≤ 0.2 |
| NYAH | ≤ 0.2 |
| LTIR | ≤ 0.2 |
| TTGI | ≤ 0.2 |
| EVML | ≤ 0.2 |
| DNKR | ≤ 0.2 |
| VNVV | ≤ 0.2 |
| PDNH | ≤ 0.2 |
| IRFW | ≤ 0.2 |
| QHGW | ≤ 0.2 |
| QHHI | ≤ 0.2 |
| GHVV | ≤ 0.2 |
| VACS | ≤ 0.2 |
| RAWA | ≤ 0.2 |
| AYLL | ≤ 0.2 |
| LCPK | ≤ 0.2 |

| Variant | one-hybrid fitness for binding NBS DNA |
| --- | --- |
| FSKA | ≤ 0.2 |
| MRMW | ≤ 0.2 |
| PVRH | ≤ 0.2 |
| LRND | ≤ 0.2 |
| YYEW | ≤ 0.2 |
| SHGG | ≤ 0.2 |
| TERM | ≤ 0.2 |
| YTEG | ≤ 0.2 |
| ESPC | ≤ 0.2 |
| QGPA | ≤ 0.2 |
| WAGC | ≤ 0.2 |
| TKRV | ≤ 0.2 |
| QGSW | ≤ 0.2 |
| NYDT | ≤ 0.2 |
| FEVN | ≤ 0.2 |
| SYGL | ≤ 0.2 |
| DVSL | ≤ 0.2 |
| FSVL | ≤ 0.2 |
| GGIV | ≤ 0.2 |
| WIDG | ≤ 0.2 |
| SEST | ≤ 0.2 |
| ITSH | ≤ 0.2 |
| PHRE | ≤ 0.2 |
| YSLW | ≤ 0.2 |
| MHAS | ≤ 0.2 |

| Variant | one-hybrid fitness for binding NBS DNA |
| --- | --- |
| EVKR | ≤ 0.2 |
| KYAR | ≤ 0.2 |
| RINH | ≤ 0.2 |
| RQMV | ≤ 0.2 |
| SKKK | ≤ 0.2 |
| SEIC | ≤ 0.2 |
| GTAQ | ≤ 0.2 |
| WKRA | ≤ 0.2 |
| ACKF | ≤ 0.2 |
| LTRG | ≤ 0.2 |
| HTRA | ≤ 0.2 |
| LMYS | ≤ 0.2 |
| VAST | ≤ 0.2 |
| RRTK | 0.228 |
| AACG | ≤ 0.2 |
| REWL | ≤ 0.2 |
| KLKS | ≤ 0.2 |
| EGLY | ≤ 0.2 |
| RIWY | ≤ 0.2 |
| GALF | ≤ 0.2 |
| QHWW | ≤ 0.2 |
| ETTR | ≤ 0.2 |
| AYLC | ≤ 0.2 |
| DYYT | ≤ 0.2 |
| ARWC | ≤ 0.2 |

| Variant | one-hybrid fitness for binding NBS DNA |
| --- | --- |
| QKTK | ≤ 0.2 |
| GEYR | ≤ 0.2 |
| SRKR | 0.34 |
| ALCG | ≤ 0.2 |
| WNWG | ≤ 0.2 |
| MVCG | ≤ 0.2 |
| NVGR | ≤ 0.2 |
| RSHI | ≤ 0.2 |
| ENTL | ≤ 0.2 |
| SQTP | ≤ 0.2 |
| NNDI | ≤ 0.2 |
| RVVN | ≤ 0.2 |
| LFSP | ≤ 0.2 |
| VLQK | ≤ 0.2 |
| TDAE | ≤ 0.2 |
| PAMD | ≤ 0.2 |
| RVGT | 0.491 |
| HCGT | ≤ 0.2 |
| DKLF | ≤ 0.2 |
| TAYL | ≤ 0.2 |
| PMVC | ≤ 0.2 |
| STNN | ≤ 0.2 |
| NTPK | ≤ 0.2 |
| DQPF | ≤ 0.2 |
| PPVF | ≤ 0.2 |

| Variant | one-hybrid fitness for binding NBS DNA |
| --- | --- |
| YQMR | ≤ 0.2 |
| ESHR | ≤ 0.2 |
| CIRG | ≤ 0.2 |
| ALMF | ≤ 0.2 |
| NMAY | ≤ 0.2 |
| CSLV | ≤ 0.2 |
| LHLC | ≤ 0.2 |
| SSTD | ≤ 0.2 |
| VKHA | ≤ 0.2 |
| LAHR | ≤ 0.2 |
| MKDF | ≤ 0.2 |
| VNNT | ≤ 0.2 |
| GLAG | ≤ 0.2 |
| GPDD | ≤ 0.2 |
| NRKH | ≤ 0.2 |
| NRTK | ≤ 0.2 |
| KTHA | ≤ 0.2 |
| SGFT | ≤ 0.2 |
| WTWT | ≤ 0.2 |
| RADL | ≤ 0.2 |

From a collection of fitness landscapes (doi:10.1016/j.celrep.2020.107928)
